Drawing on the RNAGym collection of RNA variant scans (doi:10.7554/elife.90254), this text covers self-cleavage for 167 variants.

The chains are these.
B1: LINE1-mini (parent)
chain: GGCAGAGCUCAACACAGCGUGGCAAAGUGGCUGUGGCUAGACUGCC

Read counts are not given, so values of variants with three or more changes are uncertain.

This data set covers variants of B1. The experiment in a line: self-cleavage, relative activity (ratio to wild type); higher = more cleavage; in vitro, sequencing; the parent is a self-cleaving ribozyme.
In the case of G1C G5U A6G C10G C18U G27A, the self-cleavage amounted to 0.02.
Take G1U A4C C13G A26G G29C G33A: the self-cleavage came to 0.01.
Take G1C U9G C18A G29U: the self-cleavage was 0.01.
In the case of G1C G5A U9A C13U C31G G40C, the self-cleavage is 0.06.
With G1C G22A C37U G40C, the self-cleavage came out at 0.
Consider G1C U20G A24G A26U, for which the self-cleavage amounted to 0.01.
For the variant G1C G5C C8G U20A C37G, the self-cleavage is 0.
Take G1C G30C G44C C45U: the self-cleavage is 0.02.
For the variant G1U A11C C15U A39C, the self-cleavage was 0.
With G1C G2A C3G C18G G35U A41G the figure was 0.07; with G1C G5U G7U A11U A26C G35U, 0.
G1C C45U C46A: the self-cleavage is 0.08.
Regarding G1U A4G G29U G33U U38G, the self-cleavage was determined as 0.06.
Take G1C G27U G40A: the self-cleavage was determined as 0.
Turning to G1C G17C C42G, the self-cleavage is 0.01.
As to G1C U9C U43A, the self-cleavage was 0.01.
On to G1C G22C A25G A26U, for which the self-cleavage is 0.06.
Take G1C C15U A16G G27U C46A: the self-cleavage came to 0.03.
For G1U A6G C10G A12U G33C, the self-cleavage worked out at 0.02.
As for G1C G5A C23G C42A, the self-cleavage was found to be 0.07.
Turning to G1C U28G G33C U38C, the self-cleavage worked out at 0.02.
On to G1U A4G A24U, for which the self-cleavage turned out to be 0.17.
Regarding G1U A11C A41U, the self-cleavage amounted to 0.05.
To G1C C31U C42G C46U belongs 0.01; to G1C U20G C23G G30A, 0.04.
Regarding G1C C13U G19C C31A, the self-cleavage was determined as 0.01.
On to G1C G17C A26U U34C, for which the self-cleavage was determined as 0.02.
Turning to G1C G30C G40C, the self-cleavage stood at 0.05.
With G1C G35A U43G, the self-cleavage worked out at 0.
Consider G1U A11C A26U, for which the self-cleavage was found to be 0.05.
To G1U A11U G35A belongs 0.01.
As for G1C G21U G29A U32G U38C C42U, the self-cleavage amounted to 0.
On to G1C G2C A26U, for which the self-cleavage is 0.05.
In the case of G1C G7C G30U, the self-cleavage was 0.01.
Take G1C G22U U32G C45U: the self-cleavage was found to be 0.02.
For the variant G1U A4G G29A C46G, the self-cleavage is 0.12.
As for G1C G5U C10G G21C C46A, the self-cleavage stood at 0.01.
With G1C C23U C31G C37G the figure was 0.02.
For G1C C18U C23A, the self-cleavage came to 0.16.
For G1C G7C A12G U28A, the self-cleavage is 0.01.
With G1U A6C C45A, the self-cleavage amounted to 0.09.
To G1C G17C A26G G30A G35U belongs 0.03.
Regarding G1C C31A U34G, the self-cleavage came out at 0.
With G1C G5U C8G G22U G30U the figure was 0.02.
Consider G1C C18U G22C U28G, for which the self-cleavage was 0.02.
As for G1C G27U G35A C42A, the self-cleavage came out at 0.01.
With G1U A6U G40A, the self-cleavage came out at 0.06.
For G1C U20G U32C, the self-cleavage turned out to be 0.01.
For G1C G22A G27A, the self-cleavage was 0.08.
On to G1U A4C G19C, for which the self-cleavage was found to be 0.05.
Regarding G1U A11U A14G, the self-cleavage turned out to be 0.04.
Regarding G1C C18G U20G A25U, the self-cleavage was determined as 0.
As to G1C G5C G7A U20G U38G A41C, the self-cleavage came to 0.01.
As to G1C G2C A6U G21C G36U, the self-cleavage turned out to be 0.01.
To G1U A6G G7C G27C belongs 0.03; to G1C U9C U34G, 0.01.
To G1C G2A C10U G27C belongs 0.05; to G1U A11C G27U G33C, 0.
With G1U A11G A14U C31U, the self-cleavage is 0.01.
Turning to G1C C23A C37G, the self-cleavage amounted to 0.01.
With G1C G2A C18U A24U C37A the figure was 0.01; with G1U A11C A14G C23A G35C G36C C45U, 0; with G1C G21U A24U G29C, 0.06.
G1C G7U C42U: the self-cleavage stood at 0.04.
With G1U A11C A26C G29C G30C G33A U43A, the self-cleavage came out at 0.01.
For G1C U32A G44U, the self-cleavage amounted to 0.02.
With G1U A4C A11G A26G A39G, the self-cleavage turned out to be 0.01.
With G1C G27C U34A G35U U38A C45A the figure was 0.03; with G1C G2C G19U C23U A24U G30U C45A, 0.02; with G1C G5U G33U A39G C45U, 0.02.
G1U A11G A14U A25C U28A: the self-cleavage worked out at 0.01.
Take G1U A11G G29A C42G: the self-cleavage turned out to be 0.
Take G1U A6G G17A G44A: the self-cleavage was determined as 0.13.
Consider G1C G5U U34C C45A, for which the self-cleavage worked out at 0.01.
With G1C C15U C23U C31U the figure was 0.04; with G1C G22U A26U U38C G44U, 0.02; with G1C G5U U20C, 0.02.
With G1C G7U A12C G19A U20G, the self-cleavage was 0.02.
With G1C U9G G27C G30C the figure was 0.01; with G1U A6G C13U A16C A24U A26C, 0.05; with G1U A4U G35U, 0.01.
Consider G1C G7A A25C C46U, for which the self-cleavage came to 0.03.
With G1U A11U A12G G17U G21U G30C C45A the figure was 0.02.
With G1U A6C A12C A24G G36C A39C the figure was 0.01; with G1C G5U A6C C10U A12U G19U G29U, 0.
As to G1U A12C C23G C42U, the self-cleavage is 0.01.
Turning to G1C G27U U32G C37A C42U C45G, the self-cleavage was 0.
In the case of G1U A4G G19A U38A G40U, the self-cleavage turned out to be 0.03.
On to G1C G7C A12G C42U, for which the self-cleavage was 0.04.
To G1C C18U U20C A26U belongs 0.05; to G1C G36C A39U, 0.01.
As for G1U A6G C15G C46G, the self-cleavage turned out to be 0.01.
Regarding G1U A11G A12U U34G, the self-cleavage amounted to 0.01.
Regarding G1C G5U C18U G19A A26C, the self-cleavage amounted to 0.02.
On to G1U A4U C10A U28A U38C, for which the self-cleavage was 0.01.
Turning to G1U A4U C45A, the self-cleavage amounted to 0.05.
To G1C U9A G40A C46U belongs 0.01; to G1U A6G G7U C10U G22A G27C G36A, 0.04; to G1C C23U G29C, 0.09.
For the variant G1C G33C G40C A41U, the self-cleavage amounted to 0.01.
With G1C C18A A26C the figure was 0.07; with G1U A11C G27A, 0.03; with G1C G30A C42A G44C, 0.03.
Turning to G1U A4G U9G G44U, the self-cleavage was determined as 0.05.
Regarding G1C G2A G27C A39C, the self-cleavage was determined as 0.04.
On to G1U A6C C10G C15A U34C, for which the self-cleavage was 0.02.
Take G1C C18A A24U G30C C37U G40U: the self-cleavage turned out to be 0.02.
To G1U A11U C13A belongs 0; to G1U A11U C13G, 0.01.
G1C C37G U38C C45U: the self-cleavage amounted to 0.01.
For the variant G1C G7C G29U C42G, the self-cleavage was 0.01.
Regarding G1U A11U G36C C46A, the self-cleavage came to 0.04.
With G1C G2U C13A C37U, the self-cleavage is 0.09.
With G1C G21U C31G, the self-cleavage is 0.02.
Turning to G1C G27A U32A, the self-cleavage came out at 0.01.
With G1U A12C G35A, the self-cleavage is 0.02.
For the variant G1C U9C A12G U28A U38A G40C, the self-cleavage was determined as 0.01.
With G1C G2C A16U, the self-cleavage stood at 0.01.
To G1U A11G G17C C18U G33U belongs 0.01; to G1C G21U G40U, 0.05; to G1C G2U G30U G33C, 0.02.
Regarding G1C G7A U38C A39C, the self-cleavage is 0.08.
With G1C G5A A14C U34A A39U C42A the figure was 0.
Regarding G1C G21U C45G, the self-cleavage is 0.03.
On to G1C U9C C46A, for which the self-cleavage was found to be 0.03.
With G1C U20A A26C U38A C46A the figure was 0.03; with G1C C18G U28A, 0; with G1U A6C G7A C15A A24C A25G, 0.01.
Regarding G1C G17U G21U C23G, the self-cleavage is 0.02.
With G1U A4U G29U, the self-cleavage was 0.24.
For the variant G1C G5U C8A G27U, the self-cleavage stood at 0.1.
To G1U A4C G19U G30A U32A U43A belongs 0; to G1C C15A G21U A26U U43G, 0; to G1C C37U C45U, 0.02.
To G1C G7U C18G A26G G40U C42A C45U belongs 0.02; to G1C G21A G33U G35U, 0.01.
Take G1U A4G G7A A24G C31A G36A: the self-cleavage was 0.18.
With G1C U9A G27A G30C, the self-cleavage was found to be 0.11.
Regarding G1U A6U U28C A41G C42G, the self-cleavage worked out at 0.07.
On to G1C G2U U9C A12U C13A A16C, for which the self-cleavage came out at 0.
With G1U A6U C37G G40U the figure was 0.02.
For G1C U28C G40U, the self-cleavage came out at 0.02.
With G1C C18A G44U C46A the figure was 0.02.
With G1C U20A C23G U32A the figure was 0.01; with G1U A6U C8A A14G, 0.19.
G1U A4C G7C G29U: the self-cleavage came out at 0.05.
With G1C U28A A41C U43A, the self-cleavage came to 0.
To G1C G5A C10A A11G A14U G17A C42A G44U C46A belongs 0.01.
Take G1U A11U C23U: the self-cleavage was 0.06.
With G1C G2C C3A, the self-cleavage came to 0.03.
Turning to G1C U32C C42U, the self-cleavage came to 0.01.
For G1C G7U C15U, the self-cleavage stood at 0.02.
To G1C G27U C42A belongs 0.03.
To G1U A4G A16G U34A belongs 0.02.
Take G1U A11C G17A C18U: the self-cleavage came to 0.
With G1U A6C G27U U28G, the self-cleavage turned out to be 0.08.
Take G1U A4U C10A C23G G36A: the self-cleavage turned out to be 0.02.
Consider G1U A6U G30C, for which the self-cleavage amounted to 0.13.
With G1C G7U A14G G27U the figure was 0.02; with G1C C13U G35A, 0.12; with G1C G40A U43G, 0.01.
With G1U A6G C18U C42G the figure was 0.
Regarding G1C G2C C15U U34A G35A G36C, the self-cleavage was 0.01.
As for G1C U28A C46G, the self-cleavage came out at 0.04.
Take G1C G27C C31A: the self-cleavage was 0.03.
As to G1C G19U U20A A24U, the self-cleavage was found to be 0.03.
As to G1C U9C C13A G22U C23G, the self-cleavage turned out to be 0.02.
